Screen size: about 280,000 compounds; about 540 (0.19%) were called active. Inconclusive results, whose numbers are uncertain, are shown with a selection of clear calls. Calls come from the whole dose curve; as a rule, active = well fitted activation curve with a large enough effect; inconclusive = small, poorly fitted or top-dose-only effect; inactive = flat fitted curve, though single readings scatter. Where the call is inconclusive, the potency comes from a doubtful curve fit.
Experiment: Quantitative High-Throughput Screen for Regulators of Epigenetic Control; note: nearly all actives have a fitted effect of over 60% in size; for GFP activation: % of control where 0% means no effect
Conditions: murine LDR cells, GFP reporter derepression, 30 h; GFP activation: at 53.9 µM (top of the series)
Outline: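 Derepression of a silenced CMV-GFP reporter in murine LDR cells is scored by enumerating GFP-positive cells with a laser-scanning microplate cytometer after 30 hours of treatment at 37 C.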
Potency is the fitted concentration of half-maximal effect; tags give direction and shape of the fitted curve.

| SMILES | Potency | GFP activation |
| --- | --- | --- |
| COc1cc(C(=O)ON=C2C(C)=CC(=O)C=C2C)cc(OC)c1OC | inconclusive: 22.4 µM [activator, single point] |  |
| CCOc1ccc(N2CCCn3c2nc2c3c(=O)n(CCc3ccccc3)c(=O)n2C)cc1 | inconclusive: 6.31 µM [activator, single point] |  |
| COc1cc(/C=C(\C#N)c2nc(-c3cc4ccccc4oc3=O)cs2)ccc1O | active: 4.47 µM |  |
| NC(=S)N=Nc1c(O)n(Cc2ccc(Br)cc2)c2ccccc12 | inconclusive: 22.4 µM [activator, single point] |  |
| Cc1ccccc1OCc1cc(=O)n2c(-c3ccccc3)csc2n1 | inconclusive: 35.5 µM [activator, single point] |  |
| Cc1ccc(CNc2oc(-c3ccc(COc4ccc(Cl)cc4)o3)nc2C#N)cc1 | inconclusive: 31.6 µM [activator, single point] |  |
| COc1ccc(Nc2nc3c(S(=O)(=O)c4ccc(Br)cc4)nnn3c3ccsc23)c(OC)c1 | inactive |  |
| C=CCNC(=O)/C(=C\c1ccc(OC)cc1)NC(=O)c1ccc([N+](=O)[O-])cc1 | inconclusive: 20 µM [activator, single point] |  |
| COc1cc(/C=C(/C#N)c2nc3ccccc3[nH]2)ccc1OCC(=O)Nc1ccccc1C | inconclusive: 28.2 µM [activator, single point] |  |
| CCOC(=O)c1nnc(-c2ccccc2)nc1Oc1ccc(Cl)cc1 | inconclusive: 25.1 µM [activator, single point] |  |
| O=C(/C=C/c1ccc(Br)cc1)NC(=O)c1ccccc1O | inactive |  |
| O=C(c1noc2c1CCc1ccccc1-2)N1CCc2ccccc2C1 | inactive |  |
| Cc1cc(NCc2ccccn2)n2nc(C)c(-c3ccccc3)c2n1 | inconclusive: 22.4 µM [activator, single point] |  |
| N#Cc1c(N2CCOCC2)nc(N)c2c(N)nc3c(c12)CC(CCl)O3 (stereo not given) | inconclusive: 35.5 µM [activator, single point] |  |
| COCCNC(=O)c1ccc2c(=O)n(CCOC)c(SCC(=O)c3c[nH]c4ccccc34)nc2c1 | inconclusive: 35.5 µM [activator, single point] |  |
| N#Cc1nccnc1S(=O)(=O)c1cccs1 | inactive |  |
| Cc1c(Cl)cccc1NC(=S)NCCc1ccccn1 | inactive |  |
| CN(C)c1ccc(/C=C/c2cc[n+](C)cc2)cc1 | active: 11.2 µM |  |
| CC(=O)c1cccc(Nc2nn(-c3ccc(OC(F)(F)F)cc3)nc2C(C)=O)c1 | inactive |  |
| C=CCNC(=O)/C(C#N)=C/c1c(N(Cc2ccccc2)Cc2ccccc2)nc2ccccn2c1=O | inconclusive: 35.5 µM [activator, single point] |  |
| CN1CCN(/N=C/c2nc(-c3cccc([N+](=O)[O-])c3)n3ccccc23)CC1 | inactive |  |
| CC(C)OCCCNC(=O)C(NS(=O)(=O)c1ccc2c(c1)c(=O)n(C)c(=O)n2C)c1ccccc1 (stereo not given) | inactive |  |
| Cc1cc(C)cc(NC(=O)Nc2ccccc2OCc2cc(=O)n3ccccc3n2)c1 | inconclusive: 28.2 µM [activator, single point] |  |
| CCC(=O)Nc1cc(C(=O)OCc2ccc(C(=O)Oc3ccccc3)cc2)ccc1C | inconclusive: 6.31 µM [activator, single point] |  |

| SMILES | Potency | GFP activation |
| --- | --- | --- |
| COc1cccc2cc(-c3csc(-c4ccc(Cl)cc4)n3)c(=O)oc12 | inactive |  |
| Cc1ccc(N/C(N)=N/c2nc(C)cc(N3CCCCC3)n2)c(C)c1 | inconclusive: 3.98 µM [activator, single point] |  |
| CCCNC(=O)c1cnc2sc(N3CCCCCC3)nn2c1=O | inactive |  |
| COc1cc(O)c2c(=O)cc(-c3ccc(OC)c(-c4c(O)cc(O)c5c(=O)cc(-c6ccc(O)cc6)oc45)c3)oc2c1 | inconclusive: 35.5 µM [activator, single point] |  |
| Cn1c(=O)c(NC2CCCCC2)c2c3c(cccc31)C(=O)c1ccccc1-2 | active: 0.126 µM |  |
| Cc1ccc(CNC(=S)Nc2ccc(OC(F)F)cc2C)cc1 | inactive |  |
| Oc1c(Br)cc(Br)c2cccnc12 | inconclusive: 31.6 µM [activator, single point] |  |
| Cc1cc(C(=O)Nc2ccc3nc(C)sc3c2)c2ccccc2n1 | inconclusive: 35.5 µM [activator, single point] |  |
| CCCn1c(NC(=O)c2ccc(Br)cc2)nc2ccccc21 | inactive |  |
| CSc1ccc(/C=C/c2cc(=O)c3ccccc3[nH]2)cc1 | inconclusive: 22.4 µM [activator, single point] |  |
| CCN(c1ccc(F)cc1)S(=O)(=O)c1ccc2[nH]cc(C(=O)NCCCN3CCOCC3)c(=O)c2c1 | inactive |  |
| COc1ccc2[nH]c(C)c(CCN(Cc3cccs3)C(=S)Nc3cccc(F)c3)c2c1 | inactive |  |
| COC(=O)c1ccccc1NC(=S)N1CCC(N2CCCCC2)CC1 | inconclusive: 1.41 µM [activator, partial curve] |  |
| O=[N+]([O-])c1ccc(S(=O)(=O)NCCN2CCOCC2)cc1 | inactive |  |
| CC(=O)c1ccc(N2CCN(C(=O)c3cc4ccc5cccnc5c4[nH]3)CC2)cc1 | inactive |  |
| Cc1c(O)ccc(/C=N/Nc2nc(-c3cccnc3)nc3ccccc23)c1O | inconclusive: 31.6 µM [activator, single point] |  |
| COc1cc(OC)c2cc(-c3ccncc3)cnc2c1 | inconclusive: 35.5 µM [activator, single point] |  |
| CSCC[C@@H]1NC(=O)C/C=C\[C@@H](C)COC(=O)[C@@H](CCSC)NC(=O)C/C=C\[C@@H](C)COC1=O |  | inactive: 1.06% [at 10.1 µM] |
| COC(=O)c1ccc(-c2noc(CN(Cc3ccccn3)CC3CCCO3)n2)cc1 (stereo not given) | inconclusive: 3.98 µM [activator, single point] |  |
| O=C(CSc1nc2c([nH]c3ccccc32)c(=O)n1-c1ccc(F)cc1)NCc1ccco1 | inconclusive: 25.1 µM [activator, single point] |  |
| Nc1cccc2c1C(=O)N(C(=O)/C=C/c1ccc(F)cc1)C2=O | inconclusive: 31.6 µM [activator, single point] |  |
| COc1ccc2nc(C)cc(SCC(=O)N/N=C/c3ccc(O)cc3O)c2c1 | inconclusive: 22.4 µM [activator, single point] |  |
| C=C/C1=C/Cc2ccccc2C(C[N+](=O)[O-])C(C(=O)OC)(C(=O)OC)C1 (stereo not given) |  | inactive: -1.99% [at 10.1 µM] |
| CC(=O)OCCNc1cc(SCc2ccco2)c2nonc2c1[N+](=O)[O-] | inconclusive: 31.6 µM [activator, single point] |  |

| SMILES | Potency | GFP activation |
| --- | --- | --- |
| Cn1ccc2c(OCC(=O)Nc3ccc([N+](=O)[O-])cc3)cccc2c1=O | inconclusive: 0.126 µM [activator, full curve] |  |
| CCc1ccc(NC(=O)C2CCN(S(=O)(=O)c3c(C)noc3/C=C/c3ccco3)CC2)cc1 | inconclusive: 12.6 µM [activator, single point] |  |
| CC(=O)[C@]1(O)Cc2c(O)c3c(c(O)c2[C@@H](O[C@H]2C[C@H](N)[C@H](O)[C@H](C)O2)C1)C(=O)c1c(O)cccc1C3=O | inconclusive: 1.78 µM [activator, partial curve] |  |
| CN(C)c1ccc(NC(=O)/C=C/c2ccccc2Cl)cc1 | inconclusive: 35.5 µM [activator, single point] |  |
| C=CCNC(=S)N/N=C/c1ccc(-c2cccc([N+](=O)[O-])c2)o1 | inconclusive: 35.5 µM [activator, single point] |  |
| Cc1c(C(=O)Nc2cccc(Cl)c2)cn2c(nc3ccccc32)c1C#N | inconclusive: 15.8 µM [activator, single point] |  |
| Cc1cc(C)cc(NC(=O)c2cc(S(=O)(=O)N3CCOCC3)cn2C)c1 | inactive |  |
| Cc1ccc2nc(N3CC(=O)Nc4ccccc43)nc(-c3ccccc3)c2c1 | inconclusive: 35.5 µM [activator, single point] |  |
| COc1cc(OC)c(NC(=O)Nc2sc3nc4n(c(=O)c3c2C)CCC(C)CC4)cc1Cl (stereo not given) | inactive |  |
| CCc1cccc(CC)c1NC(=O)CN1CCN(c2ccccc2)CC1 | inconclusive: 6.31 µM [activator, single point] |  |
| COc1ccc(-c2noc(CCN3C(=O)c4ccccc4C3=O)n2)cc1OC | inconclusive: 35.5 µM [activator, single point] |  |
| O=C(NCc1ccccc1)c1ccc(Cn2c(=O)c3cccn3c3cccnc32)cc1 | inconclusive: 8.91 µM [activator, partial curve] |  |
| CCC(=O)NC(=S)Nc1cccc(Cl)c1N1CCCC1 | inactive |  |
| O=C(N/N=C/C=C\c1ccco1)c1ccccn1 | inconclusive: 28.2 µM [activator, single point] |  |
| CCOC(=O)C(=O)NCC(c1cccnc1)N1CCN(c2ccccc2)CC1 (stereo not given) | inactive |  |
| O=C(N/N=C/C=C/c1ccco1)c1cccnc1 | inactive |  |
| CC1=C(C(=O)Nc2cc(Cl)ccc2C)C2(CCCCC2)OC1=O | inactive |  |
| Cc1ccc(/C=C(\NC(=O)c2ccc(C)cc2)c2nc(=S)[nH][nH]2)cc1 | inconclusive: 35.5 µM [activator, single point] |  |
| Cc1cc(C)n(-c2nc3nonc3nc2Nc2cccc(C)c2C)n1 | inactive |  |
| CC(/C=C/c1ccco1)=N/NC(=O)c1ccccc1Cl | inactive |  |
| C=C(CC)C(=O)c1ccc(OCC(=O)O)c(Cl)c1Cl | inconclusive: 35.5 µM [activator, single point] |  |
| COc1cccc(Cn2c(N)c(C#N)c3nc4ccccc4nc32)c1OC | inconclusive: 35.5 µM [activator, single point] |  |

Reference: PubChem BioAssay AID1865 (National Center for Advancing Translational Sciences (NCATS), 2009)
